Whole data set: some 110,000 compounds, median “z-score” near -0.1, cut for the highest 2% near 2. The list shows a part of the results. Calls of active or inactive are those of the source.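 The calls were made as follows: active = z-score in the third read window above 3 or below -3; inactive = the rest.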

This is an account of results in PubChem BioAssay AID488969 (Vanderbilt High Throughput Screening Facility, 2010).

This assay deals with Metabotropic glutamate receptor 8 (Rattus norvegicus) (UniProt P70579). As to the kind of experiment: rat mGluR8 modulators via GIRK flux, primary screen, cell-based, thallium flux, HTS (AID 488969). The following applies: HEK293 rat mGluR8, GIRK (G protein-gated inwardly rectifying potassium channel) thallium flux, FluoZin2; at 10 µM; stronger effect = higher value; submaximal glutamate (EC20) added with thallium.
Chain of UniProt P70579 (P70579 whole entry, looked up): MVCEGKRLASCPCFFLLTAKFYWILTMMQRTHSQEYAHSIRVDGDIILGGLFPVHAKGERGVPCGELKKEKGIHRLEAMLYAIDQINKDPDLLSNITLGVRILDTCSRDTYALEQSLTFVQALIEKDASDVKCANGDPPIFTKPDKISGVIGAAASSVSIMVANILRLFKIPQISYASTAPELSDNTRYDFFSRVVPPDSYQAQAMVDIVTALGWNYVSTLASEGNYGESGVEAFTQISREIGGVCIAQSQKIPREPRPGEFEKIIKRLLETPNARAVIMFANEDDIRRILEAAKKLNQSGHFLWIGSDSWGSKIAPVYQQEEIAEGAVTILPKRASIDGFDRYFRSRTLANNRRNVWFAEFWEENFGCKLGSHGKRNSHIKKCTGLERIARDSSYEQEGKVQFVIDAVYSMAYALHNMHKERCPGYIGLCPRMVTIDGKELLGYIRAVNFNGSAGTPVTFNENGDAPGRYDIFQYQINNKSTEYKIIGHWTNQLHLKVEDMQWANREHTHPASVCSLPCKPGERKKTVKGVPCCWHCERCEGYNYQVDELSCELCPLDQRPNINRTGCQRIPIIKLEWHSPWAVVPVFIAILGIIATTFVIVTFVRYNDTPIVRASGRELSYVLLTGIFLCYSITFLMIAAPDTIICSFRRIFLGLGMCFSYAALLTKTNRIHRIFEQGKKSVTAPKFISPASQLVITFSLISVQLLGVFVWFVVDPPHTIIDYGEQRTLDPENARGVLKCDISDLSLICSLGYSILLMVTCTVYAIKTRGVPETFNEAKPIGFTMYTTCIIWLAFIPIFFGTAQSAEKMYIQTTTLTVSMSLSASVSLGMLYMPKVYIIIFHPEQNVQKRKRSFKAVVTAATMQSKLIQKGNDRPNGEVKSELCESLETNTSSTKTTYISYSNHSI
In turn, `CO/N=C/NC(=O)Cc1cn(-c2ncc(C(F)(F)F)cc2Cl)c2ccccc12` displayed a z-score of 0.465. For `COc1cc2c(cc1NC(C)=O)CCCC2` the value was 0.172; for `Cc1cc2nc(SCC(=O)O)nc(C)c2cc1C`, -1.5. `O=S(=O)(NCCSCc1ccc(Cl)c(Cl)c1)c1ccc2c(c1)OCCO2`: the z-score was 0.0986. As to `CC(C)CCNC(=O)CN(Cc1ccc2c(c1)OCO2)C(=O)CCC(=O)Nc1ccccn1`, the z-score is -0.101.

`COc1cccc(/C=N/Nc2ncnc3scc(-c4ccccc4)c23)c1OC` returned a z-score of -0.779. The result for `Cc1ccc(S(=O)(=O)N2CCN(S(=O)(=O)c3ccccc3)C2c2ccc(N(C)C)cc2)cc1` (stereo not given) reads 1.77; that for `Cc1ccc(Cn2nnc3c(=O)n(CC(=O)NCc4ccco4)cnc32)cc1`, -0.66; that for `CC(NC(N)=O)C12CC3CC(CC(C3)C1)C2` (stereo not given), -0.205. The result for `Cc1c(Br)cc(C(=O)NCCCN2CCOCC2)c(C)c1C` reads 0.355; that for `O=C(CCc1ccccc1)c1ccc2c(c1)OCCCO2`, -0.00374. The result for `COc1ccc(CC(=O)NNc2ncnc3c2cnn3C)cc1OC` reads -0.136. Molecule `CC(=O)NCCOC(=O)Nc1sc(=S)n(C)c1C` came in with a z-score of -0.0717. Consider `Clc1nc2ccccc2cc1/C=N/Nc1nc2ccccc2[nH]1`, for which the z-score worked out at 0.246. The molecule `CCCCN(CCCC)CC(O)COc1ccccc1Br` (stereo not given) showed a z-score of 0.637. `COc1ccc(OC)c2c(C)cc(N3CCN(C(=O)c4ccc(F)cc4)CC3)nc12` displayed a z-score of -0.195. For `CCCNC(=O)NC1C(NC(=O)NCCC)N(C)C(=O)N1C` (stereo not given), the z-score is 0.382. For the molecule `Clc1ccc(-c2csc(N3CCc4ccccc4C3)n2)cc1`, the z-score is -0.0364. For `C=CCc1c(C)nc(SCC(=C)C)[nH]c1=O` the value was -0.25; for `COc1cc(OC)cc(C(=O)NC(=S)Nc2ccc(Cl)c(C(=O)O)c2)c1`, 0.157.

Molecule `Cc1ccc(OCC(=O)N/N=C2\CCOc3c(C)cccc32)cc1` showed a z-score of 0.136. For `O=C(COc1ccccc1)Nc1cc(C(F)(F)F)ccc1N1CCCC1` the value was -0.434; for `CC(O)CNCCNCc1c(OCc2ccccc2)ccc2ccccc12` (stereo not given), 0.624; for `O=c1c2ccccc2nc2n1C1(CCCCC1)Cc1ccccc1-2`, 0.0895. For `CCCN1C(=O)C(NC(=O)c2ccncc2)(C(F)(F)F)C2=C1CC(C)(C)CC2=O` (stereo not given) the value was -0.391; for `CCOC(=O)C(/C(C)=N/NC(=O)c1ccccc1[N+](=O)[O-])C(C)C` (stereo not given), 0.0757; for `CCOc1ccc(S(=O)(=O)NCC2CCCO2)c2cccnc12` (stereo not given), 0.118. Molecule `O=C1CC(C(=O)O)C2(CCCC2)O1` (stereo not given) gave a z-score of -0.0157.

The molecule `COc1ccc(C)cc1S(=O)(=O)N(C)CC(=O)NC1CCCCC1` came in with a z-score of -0.723. In the case of `O=C1c2ccccc2-c2c1cccc2C(=O)N1CCOCC1`, the z-score is -0.0895. For `COc1nc(N2CCOCC2)nc(-n2cccc2)n1` the value was 0.0234. For `CCC(Sc1nc2c(c(=O)n1CC)SC(C)C2)C(=O)OC` (stereo not given) the value was -0.966; for `OC(CSc1ccccc1Cl)CN1CCN(c2ccccc2F)CC1` (stereo not given), -0.478; for `COc1ccc(CNC(=O)COC(=O)CC2CCCC2)cc1`, -0.194. For `Cc1ccc(NC(=O)CC2C(=O)OCC3CCCCN32)cc1Cl` (stereo not given) the value was -0.276.

Turning to `O=C(Cn1cnc2c(nnn2-c2ccccc2)c1=O)NCc1ccco1`, the z-score stood at 0.628. For the molecule `COc1ccc(C2NC(=O)NC(C)=C2C(C)=O)cc1` (stereo not given), the z-score is -0.186. For `CC1CCCC(NC(=O)CSc2nnnn2C)C1C` (stereo not given) the value was 0.0873; for `COc1ccc(C2=C(CC(=O)O)C(=O)CC2)cc1`, 0.0932; for `c1ccc2oc(SCc3cn4ccccc4n3)nc2c1`, -0.00786. For `CCN(CC)C(=O)C1CC(=O)N(c2ccc(OC)cc2)C1c1ccc(OC)cc1` (stereo not given) the value was -0.282; for `COc1ccc(OCC(O)CNC(=O)Nc2ccc(Cl)cc2)cc1` (stereo not given), -0.208; for `CC(=O)c1cccc(NC(=O)c2cccc(S(=O)(=O)N(C)C)c2)c1`, -0.0832. The result for `CC1CCN(C(=O)Cn2c(=O)n(Cc3ccc4c(c3)OCO4)c(=O)c3ccccc32)CC1` reads -1.65. On to `N#Cc1c(-c2ccccc2F)cc(-c2cccnc2)nc1N`, for which the z-score was -0.583. In the case of `Cc1oc2cc(OC(C)C(=O)O)ccc2c(=O)c1Oc1ccccc1` (stereo not given), the z-score amounted to 0.256. For `O=C1C(N2CCOCC2)=C(n2nnc3ccccc32)C(=O)c2ccccc21` the value was -0.718; for `FC(F)(F)c1nnc(-c2ccccc2)nc1N1CCOCC1`, -0.768; for `CC(C)NC(=O)c1ccc2c(c1)N(CC(=O)N1CCOCC1)C(=O)C(C)(C)O2`, -0.39.

Molecule `Cc1ccc2c(c1)[C@H]1OCC[C@H]1[C@@H](c1ccncc1)N2` returned a z-score of -0.0601. For `CCOC(=O)C1=C(C)N=C2SCCC(=O)N2C1c1cc(Br)ccc1OC` (stereo not given), the z-score was -0.383.

In turn, `O=C(CSc1ccc(Cl)cc1)Nc1ccc(N2CCN(C(=O)c3ccco3)CC2)cc1` displayed a z-score of -0.0566.

`CC(C)(C(=O)c1ccccc1)/[N+]([O-])=C/c1ccc(Br)cc1` showed a z-score of -0.159. For `CC1OC(Nc2ccc(OC(F)(F)F)cc2)C(O)C(O)C1O` (stereo not given) the value was 0.913; for `O=C1CC(c2cccs2)Sc2nc3ccccc3n21` (stereo not given), 1.16; for `COc1ccc(-c2cn3c(C)c(C(=O)N4CCN(c5ccc(F)cc5)CC4)sc3n2)cc1`, 0.116. For `CC(C)=CC(=O)OCC(=O)Nc1cc([N+](=O)[O-])ccc1F` the value was 0.591. The molecule `O=c1c(-c2ccnn2-c2ccccc2F)cnc2n1CCS2` yielded a z-score of -0.0779.

In turn, `CC(C)(C)NC(=O)COC(=O)c1nsc(Cl)c1Cl` had a z-score of -0.147. Turning to `Cc1ccc2c(CC(=O)OCc3cc(=O)n4c(n3)sc3ccccc34)coc2c1`, the z-score is -0.0698. For `Cc1cc(/C=C2\SC(N)=NC2=O)c(C)n1-c1ccccc1` the value was -0.446. In turn, `COc1cccc(NC(=O)c2cc(CN3C(=O)c4ccccc4C3=O)ccc2OC)c1` came in with a z-score of -0.315. In turn, `COc1cc(OC)cc(C(=O)NC(=S)NCCc2ccccc2)c1` had a z-score of 2.08. The result for `S=C(NCc1ccco1)Nc1ccc(Cl)c(Cl)c1` reads active: 8.32; that for `COc1ccc(CC(=O)N2N=C(C)CC2(O)c2cccnc2)cc1OC` (stereo not given), -0.219. For `CC(=O)NCC(=O)OCC(=O)c1ccc(C)cc1` the value was 0.0311; for `Cc1cc(O)c(C(C)C)cc1NC(=O)c1ccc(Cl)cc1`, 0.074. Molecule `COc1ccc2cc(CN(CCO)C(=O)c3ccc(Br)cc3)c(=O)[nH]c2c1` displayed a z-score of -0.235.

As for `COc1ccc(S(=O)(=O)Cc2ccc(C(=O)N3CCN(c4ccc(Cl)cc4)CC3)o2)cc1`, the z-score is -0.315.

In turn, `Cc1nn(Cc2ccc(Cl)cc2Cl)c(C)c1NC(=O)c1nn(C)cc1Cl` displayed a z-score of -0.412. `CNCCCOc1ccc(C)cc1Br` yielded a z-score of 0.0215. Take `Cc1sc2ncnc(NCC3COc4ccccc4O3)c2c1C` (stereo not given): the z-score was -1.48. The result for `COc1ccc(NC(=O)c2cc(Cl)ccc2NC(=O)c2ccco2)c(OC)c1` reads 0.354; that for `COc1ccc2[nH]c(=O)c(CN(C)C(=O)C3CCCCC3)cc2c1`, -0.073. For `COCCn1c(C)cc(C(=O)COC(=O)CCc2ccc(S(=O)(=O)N3CCOCC3)cc2)c1C` the value was 0.0411.

For `O=C(CSc1nc2ccccc2s1)N1c2ccccc2Sc2ccc(Cl)cc21`, the z-score was -0.287. Turning to `CCOC(=O)c1cccc(N2C(=O)c3ccccc3S2(=O)=O)c1`, the z-score was -0.275. For `CC1=C(C(=O)OCc2ccccc2)C(c2ccoc2)C(C#N)=C(N)O1` (stereo not given) the value was -0.711. The molecule `Cc1nnsc1C(=O)Nc1ccc(Cl)cc1` came in with a z-score of 0.311. The result for `Nc1nc(N)nc(-c2ccc(Cl)cc2)n1` reads -0.21; that for `O=C(CSc1nc2ccccc2o1)Nc1ccc(N2CCOCC2)cc1`, 0.561; that for `COc1ccccc1C(c1nnnn1Cc1ccccc1)N1CCC(C(N)=O)CC1` (stereo not given), -0.532.

The molecule `COc1ccc(N2CCN(C(=O)CSc3ncnc4scc(-c5ccc(C)cc5)c34)CC2)cc1` showed a z-score of -0.142. The result for `O=C(CCSCc1ccccc1Cl)N1CCN(c2ccccn2)CC1` reads -0.486; that for `Cc1ccc(SCCC(=O)N(C)C)cc1`, -0.0717; that for `Cc1cccc(NC(=O)NCC(c2cccnc2)N2CCOCC2)c1` (stereo not given), -0.216.

With `COCCn1c(=O)[nH]c(=O)c2cc(C(=O)c3cc(OC)ccc3O)cnc21`, the z-score is -0.409. The result for `Cc1ccc(-n2[nH]c(C)c(/C=N/n3c(C)nc4ccccc4c3=O)c2=O)cc1` reads 0.177; that for `Cc1oc(-c2cccs2)[n+]([O-])c1C`, 0.125. For `O=C(O)CCCCCn1c(SCC(=O)N2CCCC2)nc2ccsc2c1=O` the value was -0.486. The result for `CCC(=O)Nc1ccc(N2CCN(Cc3ccccc3)CC2)cc1` reads 0.042; that for `COc1ccc(-c2noc(-c3ccccc3C(=O)N3CCOCC3)n2)cc1`, 0.106.

`CCC(=O)N1c2ccccc2NC2=C(C(=O)CCC2)C1c1ccc(N(C)C)cc1` (stereo not given) registered a z-score of 0.0529. For `COc1cc(/C=C/C(C)=O)cc(OC)c1OC` the value was -0.0769.

In the case of `C=C(Br)CN1CCN(CC(=C)Br)CC1`, the z-score is 0.307. On to `CN(C)c1nc(C(=O)Nc2ccccc2)nc(N(C)C)n1`, for which the z-score was -0.064. For `CC(=O)CCC(=O)c1ccc2ccccc2c1` the value was -0.0483; for `CCSC1=C(C#N)C(c2cccc(O)c2)CC(=O)N1` (stereo not given), -0.424. The molecule `N/C(Cc1cccs1)=N\OC(=O)COc1ccc(Cl)cc1Cl` registered a z-score of -0.23. As to `Cn1cc(SCC(=O)N2CCOCC2)c2ccccc21`, the z-score was -0.146. With `COC(=O)c1[nH]c2cc(OC)ccc2c1NC(=O)CCN1CCSCC1`, the z-score is -0.128. For `CCOC(=O)Cn1nnnc1CN(Cc1ccc(OC)cc1)Cc1cc2cc(C)ccc2[nH]c1=O` the value was 1.32. For `COC(=O)c1ccccc1NC(=O)CN(C)S(=O)(=O)c1ccc(OC)c(C)c1` the value was -0.0547; for `O=C(Cn1c(=O)n(Cc2ccco2)c(=O)c2c3c(sc21)CCCCC3)c1ccccc1`, -0.0852. Regarding `CCn1c(=O)c(C(=O)CN2CCN(S(=O)(=O)c3cc(C)ccc3C)CC2)c(N)n(Cc2ccccc2)c1=O`, the z-score is -0.333.

`CC(C)OC(=O)CSc1nnc(-c2ccc(Cl)cc2Cl)o1` yielded a z-score of -0.122. For `COCCCn1c(SCC(=O)N2CCc3ccccc32)nnc1-c1ccco1` the value was -0.129. The result for `c1ccc(CCC2=NCCn3cccc32)cc1` reads 0.441. For `CCOC(=O)c1c(C)[nH]c2c1-c1ccccc1C(=O)C2=O` the value was -0.0871; for `COc1ccc(CCNC(=O)CSc2nc3ccccc3o2)cc1OC`, 0.323. For the molecule `COc1ccnc(Oc2ccccc2)c1C#N`, the z-score was -0.0884. For `COc1ccc(/C=N/OC/C(O)=C(\C#N)c2nc3ccccc3[nH]2)cc1` the value was -0.288; for `COc1ccc(N2C(=O)CC(Sc3nccc(C)n3)C2=O)cc1` (stereo not given), 1.91.

In turn, `Cc1cccc(-c2c3c(=O)n(C)c(=O)n(C)c3cn2C(C)(C)C)c1` showed a z-score of -0.413. The result for `O=C(CNC(=O)c1ccccc1)OCc1nc2ccccc2s1` reads -0.296.
